# In the supplement of paper PMC4166925:
# ± gives the standard deviation of the averaged measurements. The full ranking holds about 33,000 sequences; the median of “E-score (dimensionless, -0.5 to 0.5)” is about -0.046, and the highest 2% start at about 0.36. Some of the results follow.
# Test system: T1, SpTbr T-box DNA-binding domain (GST fusion)
# T1 sequence: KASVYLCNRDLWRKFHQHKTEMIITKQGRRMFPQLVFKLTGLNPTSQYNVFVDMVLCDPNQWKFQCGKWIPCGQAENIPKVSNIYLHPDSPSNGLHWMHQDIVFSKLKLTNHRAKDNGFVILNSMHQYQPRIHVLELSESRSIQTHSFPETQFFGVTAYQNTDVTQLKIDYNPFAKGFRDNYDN
# Assay: PBM E-score of 8-mer (E-score (dimensionless, -0.5 to 0.5)); Tbr is Tbrain of the sea star Patiria miniata (Pm) or the sea urchin Strongylocentrotus purpuratus (Sp); higher = stronger binding preference; most listed sequences are background and not binding sites
# Settings: the construct has about 5 more residues each side
# Method in brief: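 Using the Universal PBM Analysis Suite, every ungapped 8-mer received an enrichment E-score averaged over duplicate arrays. Probe intensities came from double-stranded Universal Agilent oligonucleotide arrays incubated with 200 nM GST-fused Tbr T-box DNA-binding domain in PBS (pH 7.5). That protein was expressed in BL21 E. coli at 20 °C and purified by glutathione affinity chromatography.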
row,Sequence,PBM E-score of 8-mer
1,GAATTGAC,0.0994 ± 0.016
2,ATGCCTTG,-0.179 ± 0.056
3,CCAGGGCG,-0.0798 ± 0.082
4,AAAGAGCG,-0.0683 ± 0.0027
5,AACAAGCC,0.00439 ± 0.043
6,GCCCCACA,0.0709 ± 0.076
7,GCGGGTCC,0.00421 ± 0.052
8,GCTATTCC,-0.237 ± 0.058
9,CGTCCTTA,-0.2949 ± 0.0015
10,ATCTATAG,-0.0857 ± 0.049
11,CTGATCCA,-0.238 ± 0.023
12,ACATCAAG,-0.0049 ± 0.071
13,CGCGCTCC,0.0466 ± 0.14
14,GAGTGCTA,0.282 ± 0.0081
15,AACTCCGG,-0.122 ± 0.0055
16,AGTTTGTC,0.137 ± 0.0077
17,ATCGCTAC,0.132 ± 0.018
18,ACGGTATG,-0.119 ± 0.014
19,AGTTACCG,0.0306 ± 0.0028
20,TGAACCAA,0.0124 ± 0.00074
21,AAATCAAA,-0.189 ± 0.055
22,CATATTCG,0.0585 ± 0.056
23,GCGTATAA,-0.0456 ± 0.03
24,GTAGACAA,-0.0858 ± 0.00091
25,CGGACGAA,-0.0131 ± 0.0016

row,Sequence,PBM E-score of 8-mer
1,ACGGGCCC,-0.136 ± 0.035
2,GGACTTGA,-0.12 ± 0.047
3,ATTCTTGG,-0.188 ± 0.053
4,ATTAAACC,-0.228 ± 0.053
5,AGACCCCT,-0.232 ± 0.025
6,ATCAATGA,-0.0875 ± 0.023
7,GGCCCACC,-0.212 ± 0.045
8,ACGTACTA,-0.0923 ± 0.0055
9,CGATTCTC,0.142 ± 0.0019
10,GAGGGGAA,-0.0785 ± 0.031
11,GACCCGCA,-0.125 ± 0.017
12,CCTACTCC,-0.221 ± 0.015
13,GCGCTCCA,-0.0637 ± 0.15
14,ATCCTCCG,-0.145 ± 0.016
15,GACAATAA,-0.00196 ± 0.046
16,CTAGTAAC,-0.186 ± 0.021
17,CGACACTC,0.344 ± 0.007
18,ATCGTCGC,0.133 ± 0.065
19,CAGCGCGG,0.0687 ± 0.087
20,CACCGGTG,0.183 ± 0.027
21,CGACGGAG,-0.171 ± 0.038
22,ATTGATGG,-0.163 ± 0.037
23,CCTACGAA,-0.173 ± 0.063
24,GAAGGTCA,-0.0314 ± 0.073
25,CCGTTCAC,0.367 ± 0.029

row,Sequence,PBM E-score of 8-mer
1,ACCTCCTC,0.169 ± 0.02
2,CGCATCGC,0.122 ± 0.026
3,GAATCTCC,-0.14 ± 0.0052
4,CCCTTCTC,-0.1496 ± 0.0013
5,CTTGTGTA,-0.00671 ± 0.024
6,CCGAAAGA,-0.141 ± 0.018
7,GTTTTCGA,-0.0727 ± 0.051
8,CACAAATC,0.105 ± 0.012
9,CATTGGTC,-0.00679 ± 0.01
10,AACGAAAG,-0.173 ± 0.069
11,GGGGTGGA,-0.00335 ± 0.03
12,AAAGTTCC,-0.0533 ± 0.042
13,GAGCCGGC,-0.165 ± 0.0071
14,TCATGAAA,-0.154 ± 0.033
15,AGTTTATG,-0.127 ± 0.027
16,CACCTCTC,0.421 ± 0.022
17,CTAAGATA,0.0445 ± 0.014
18,CAGTTCGG,-0.105 ± 0.045
19,ATGTGTCG,0.385 ± 0.011
20,CGTGAGCC,0.0349 ± 0.039
21,AGCAATAC,-0.12 ± 0.13
22,ACTTTCCG,0.0612 ± 0.0031
23,ATCAATTA,-0.00366 ± 0.054
24,ACCTTGGG,0.00347 ± 0.012
25,AGGTGGCG,0.401 ± 0.011

row,Sequence,PBM E-score of 8-mer
1,TGTGTGAA,0.4829 ± 0.004
2,TCTACAAA,-0.107 ± 0.1
3,AATGTAGT,-0.148 ± 0.016
4,ACTTGAGA,0.183 ± 0.083
5,AATCTTAT,-0.122 ± 0.0085
6,AACATGTA,-0.0332 ± 0.005
7,AGAGGAAT,-0.168 ± 0.073
8,CAGTTCTC,0.143 ± 0.053
9,GATGCGTA,-0.0483 ± 0.05
10,CAAGCTTG,0.102 ± 0.004
11,ATGCCCTG,-0.171 ± 0.066
12,CTATCTCA,0.189 ± 0.03
13,AGACTTTC,0.00343 ± 0.055
14,AAACCCCC,-0.176 ± 0.01
15,ACATAATC,-0.0595 ± 0.056
16,GAGTTCCC,-0.239 ± 0.0036
17,AGAGTATA,-0.193 ± 0.037
18,ATGAGCCG,-0.0664 ± 0.0058
19,ACCTTCTG,0.0938 ± 0.069
20,ACAGCGCC,0.0688 ± 0.022
21,AAGACCTA,-0.187 ± 0.046
22,CTCGGGTA,-0.25 ± 0.046
23,ACAGGTCA,0.161 ± 0.01
24,CGCCCGTC,0.0569 ± 0.029
25,AATACGGG,-0.245 ± 0.03

row,Sequence,PBM E-score of 8-mer
1,GTGTACTA,-0.0501 ± 0.068
2,GTCGGAAA,0.00439 ± 0.0032
3,ATTCTACG,-0.2 ± 0.078
4,GCGCCGCC,0.0262 ± 0.093
5,GTAAGGTA,-0.104 ± 0.09
6,AAAAAGCG,-0.0362 ± 0.19
7,ACCGACAA,-0.0797 ± 0.034
8,GGGGCTCA,-0.207 ± 0.0097
9,CACTTACA,0.226 ± 0.018
10,CCCTATCC,0.014 ± 0.014
11,AAAGAAAT,-0.0743 ± 0.075
12,GCTGTCGA,0.231 ± 0.04
13,ATTCCCCG,-0.087 ± 0.088
14,CACTGCTG,-0.167 ± 0.16
15,CATTTGAG,-0.167 ± 0.097
16,AATTTCAT,-0.0923 ± 0.093
17,CGGGACCA,-0.17 ± 0.021
18,CAACAGTA,-0.0249 ± 0.048
19,AATATTCA,-0.0119 ± 0.029
20,AAGTCCCA,-0.0384 ± 0.044
21,CTGAGTGA,0.0791 ± 0.047
22,AGTAGATC,-0.267 ± 0.0062
23,CAGTCAGA,-0.291 ± 0.01
24,CCGGGGGC,-0.15 ± 0.024
25,ACAGAGCT,-0.249 ± 0.026

row,Sequence,PBM E-score of 8-mer
1,CCGTATAA,-0.00481 ± 0.037
2,ACGTTTTA,-0.0319 ± 0.053
3,GACTATAC,-0.126 ± 0.016
4,TACCTTAA,-0.0756 ± 0.023
5,ACAAATAG,0.148 ± 0.09
6,CACCCCAA,0.289 ± 0.0097
7,CCCGTTTA,-0.0629 ± 0.076
8,AAATCGTT,-0.0755 ± 0.038
9,CCCTGCCA,0.0348 ± 0.072
10,CCAGGCAG,-0.0698 ± 0.14
11,GGTATTGA,-0.05841 ± 0.00042
12,GCCTTTAC,-0.0401 ± 0.061
13,AATACACT,-0.086 ± 0.005
14,GGTCTATA,-0.27 ± 0.0034
15,GTTGGGCA,0.111 ± 0.036
16,CTTGCCAC,0.305 ± 0.018
17,AGTGCTTA,0.0064 ± 0.1
18,AGTGGGCC,-0.0341 ± 0.051
19,GTGTAAAA,0.36 ± 0.021
20,CTCCTATC,0.00071 ± 0.081
21,ATGCGGGA,-0.193 ± 0.03
22,ATTTTAAA,-0.0399 ± 0.066
23,AAGTAGGT,0.13 ± 0.075
24,CGGATTGC,-0.0648 ± 0.046
25,CACTTCAC,0.39 ± 0.0097

row,Sequence,PBM E-score of 8-mer
1,AGCGCAAC,-0.062 ± 0.0096
2,ATGTTCTG,-0.2632 ± 0.00062
3,CCATTCCG,-0.0524 ± 0.026
4,TCAAACAA,-0.156 ± 0.023
5,CTTTGAAC,-0.0352 ± 0.028
6,AAGTCAAG,-0.061 ± 0.052
7,CGGTCGAA,-0.169 ± 0.06
8,GCATTAGC,0.182 ± 0.021
9,GGACCTCC,-0.327 ± 0.017
10,ATTCTCCC,-0.301 ± 0.014
11,CAGTCTGA,-0.137 ± 0.034
12,GGGTACCA,0.0313 ± 0.032
13,ATCGCCTA,-0.0778 ± 0.05
14,ACAGAGTA,-0.0148 ± 0.055
15,GAGAAATA,-0.0566 ± 0.049
16,AATAAGGC,-0.182 ± 0.018
17,ATCCAGAA,-0.175 ± 0.021
18,ATTAAGAA,-0.254 ± 0.043
19,ACGGTAGA,-0.158 ± 0.023
20,AGACAACG,-0.0213 ± 0.033
21,CGGATGAG,-0.175 ± 0.019
22,AATTATAC,-0.0993 ± 0.071
